From patent publication US20250171549A1 (Amgen, published 2025)
Where no end group is shown, it is not given here.

T1: P_1-12 construct (truncated N-terminal peptide of human CCR8 fused to V5 tag, chicken albumin, FLAG tag, BAP … (human, also: fused to V5 tag, chicken albumin, FLAG tag, BAP, H3G, biotinylated at BAP))
T1 construct: Expressed in HEK 293 cells, on streptavidin beads; not shown: same C-terminal fusion as P_1-35 construct (V5 tag, chicken albumin, FLAG tag, BAP, H3G with linkers)
T1 chain: MDYTLDLSVTTV

T2: P_7-18 construct (truncated N-terminal peptide of human CCR8 fused to V5 tag, chicken albumin, FLAG tag, BAP … (human, also: fused to V5 tag, chicken albumin, FLAG tag, BAP, H3G, biotinylated at BAP))
T2 construct: Expressed in HEK 293 cells, on streptavidin beads; not shown: same C-terminal fusion as P_1-35 construct (V5 tag, chicken albumin, FLAG tag, BAP, H3G with linkers)
T2 chain: LSVTTVTDYYYP

T3: P_13-24 construct (truncated N-terminal peptide of human CCR8 fused to V5 tag, chicken albumin, FLAG tag, BAP … (human, also: fused to V5 tag, chicken albumin, FLAG tag, BAP, H3G, biotinylated at BAP))
T3 construct: Expressed in HEK 293 cells, on streptavidin beads; not shown: same C-terminal fusion as P_1-35 construct (V5 tag, chicken albumin, FLAG tag, BAP, H3G with linkers)
T3 chain: TDYYYPDIFSSP

T4: P_19-30 construct (truncated N-terminal peptide of human CCR8 fused to V5 tag, chicken albumin, FLAG tag, BAP … (human, also: fused to V5 tag, chicken albumin, FLAG tag, BAP, H3G, biotinylated at BAP))
T4 construct: Expressed in HEK 293 cells, on streptavidin beads; not shown: same C-terminal fusion as P_1-35 construct (V5 tag, chicken albumin, FLAG tag, BAP, H3G with linkers)
T4 chain: DIFSSPCDAELI

T5: P_25-35 construct (truncated N-terminal peptide of human CCR8 fused to V5 tag, chicken albumin, FLAG tag, BAP … (human, also: fused to V5 tag, chicken albumin, FLAG tag, BAP, H3G, biotinylated at BAP))
T5 construct: Expressed in HEK 293 cells, on streptavidin beads; not shown: same C-terminal fusion as P_1-35 construct (V5 tag, chicken albumin, FLAG tag, BAP, H3G with linkers)
T5 chain: CDAELIQTNGK


Tests used:
Test in all cases: flow cytometry, construct on streptavidin beads, TCE 5 ug/mL
[1] = biological target: T6, P_1-35 construct (full-length N-terminal peptide of human CCR8 fused to V5 tag, chicken albumin, FLAG tag, … (human, biotinylated in vivo at BAP))
T6 construct: not shown: C-terminal fusion: G4S-linker, V5 tag, G4S-linker, chicken albumin, SG-linker, FLAG tag, SG-linker, BAP (biotin acceptor)

[2] = biological target: T1, P_1-12 construct (truncated N-terminal …)
[3] = biological target: T2, P_7-18 construct (truncated N-terminal …)
[4] = biological target: T3, P_13-24 construct (truncated N-terminal …)
[5] = biological target: T4, P_19-30 construct (truncated N-terminal …)
[6] = biological target: T5, P_25-35 construct (truncated N-terminal …)

Binder	Median Fluorescence of Sample/Median Fluorescence of Negative Control [1]	Median Fluorescence of Sample/Median Fluorescence of Negative Control [2]	Median Fluorescence of Sample/Median Fluorescence of Negative Control [3]	Median Fluorescence of Sample/Median Fluorescence of Negative Control [4]	Median Fluorescence of Sample/Median Fluorescence of Negative Control [5]	Median Fluorescence of Sample/Median Fluorescence of Negative Control [6]
CCR8 TCE1 scFab × I2E × scFc (bispecific antibody) EVQLVESGGGLVKPGGSLRLSCAASGFTFSNARMGWVRQAPGKGLEWVGRIKSKTEGGTRDYAAPVKGRFTISRDDSKNTLYLQMNSLKTEDTAVYYCTSYSGVWGQGTMVTVSSASTKGPSVFPLAPSSKSTSGGTAALGCLVKDYFPEPVTVSWNSGALTSGVHTFPAVLQSSGLYSLSSVVTVPSSSLGTQTYICNVNHKPSNTKVDKKVEPKSCGGGGQGGGGQGGGGQGGGGQGGGGQGGGGQGGGGQGGGGQEIVMTQSPDSLAVSLGERATINCKSSQSVLYSSNNKNYLAWYHQKPGQSPKLLISWASTRESGVPDRFSGSGSGTDFTLTINSLQAEDVAVYYCQQYYSIPITFGGGTKVEIKRTVAAPSVFIFPPSDEQLKSGTASVVCLLNNFYPREAKVQWKVDNALQSGNSQESVTEQDSKDSTYSLSSTLTLSKADYEKHKVYACEVTHQGLSSPVTKSFNRGECSGGGGQEVQLVESGGGLVQPGGSLKLSCAASGFTFNKYAINWVRQAPGKGLEWVARIRSKYNNYATYYADAVKDRFTISRDDSKNTVYLQMNNLKTEDTAVYYCARAGNFGSSYISYWAYWGQGTLVTVSSGGGGQGGGGQGGGGQQTVVTQEPSLTVSPGGTVTIT[about 80 residues not given here]FGSGTKLTVLGGGGCPPCPAPELLGGPSVFLFPPKPKDTLMISRTPEVTCVVVDVSHEEPEVKFNWYVDGVEVHNAKTKPCEEQYGSTYRCVSVLTVLHQDWLNGKEYKCKVSNKALPAPIEKTISKAKGQPREPQVYTLPPSREEMTKNQVSLTCLVKGFYPSDIAVEWESNGQPENNYKTTPPVLDSDGSFFLYSKLTVDKSRWQQGNVFSCSVMHEALHNHYTQKSLSLSPGKGGGGQGGGGQGGGGQGGGGQGGGGQGGGGQCPPCPAPELLGGPSVFLFPPKPKDTLMISRTPEVTCVVVDVSHEEPEVKFNWYVDGVEVHNAKTKPCEEQYGSTYRCVSVLTVLHQDWLNGKEYKCKVSNKALPAPIEKTISKAKGQPREPQVYTLPPSREEMTKNQVSLTCLVKGFYPSDIAVEWESNGQPENNYKTTPPVLDSDGSFFLYSKLTVDKSRWQQGNVFSCSVMHEALHNHYTQKSLSLSPGK	471	414	1	1.1	1.1	1.1
CCR8 TCE2 scFab × I2E × scFc (bispecific antibody) QVQLVESGGGVVQPGRSLRLSCAASGFTFSNYGMHWVRQAPGKGLEWVAVISYDGSNKFYADSVKGRFTISRDNSKKTLYLQMSSLRVEDTAVYYCARAGGIGRFDYWGQGTLVTVSSASTKGPSVFPLAPSSKSTSGGTAALGCLVKDYFPEPVTVSWNSGALTSGVHTFPAVLQSSGLYSLSSVVTVPSSSLGTQTYICNVNHKPSNTKVDKKVEPKSCGGGGQGGGGQGGGGQGGGGQGGGGQGGGGQGGGGQGGGGQDFVMTQTPLSLSVTPGQPASISCKYSQSLLHSDGKTYLFWYLQKPGQPPHLLIYEVSNRFSGVPDRFSGSGSGTDFTLKISRVEAEDVGLYYCMQTLKLPLTFGGGTKVEINRTVAAPSVFIFPPSDEQLKSGTASVVCLLNNFYPREAKVQWKVDNALQSGNSQESVTEQDSKDSTYSLSSTLTLSKADYEKHKVYACEVTHQGLSSPVTKSFNRGECSGGGGQEVQLVESGGGLVQPGGSLKLSCAASGFTFNKYAINWVRQAPGKGLEWVARIRSKYNNYATYYADAVKDRFTISRDDSKNTVYLQMNNLKTEDTAVYYCARAGNFGSSYISYWAYWGQGTLVTVSSGGGGQGGGGQGGGGQQTVVTQEPSLTVSPGGTVTIT[about 80 residues not given here]FGSGTKLTVLGGGGCPPCPAPELLGGPSVFLFPPKPKDTLMISRTPEVTCVVVDVSHEEPEVKFNWYVDGVEVHNAKTKPCEEQYGSTYRCVSVLTVLHQDWLNGKEYKCKVSNKALPAPIEKTISKAKGQPREPQVYTLPPSREEMTKNQVSLTCLVKGFYPSDIAVEWESNGQPENNYKTTPPVLDSDGSFFLYSKLTVDKSRWQQGNVFSCSVMHEALHNHYTQKSLSLSPGKGGGGQGGGGQGGGGQGGGGQGGGGQGGGGQCPPCPAPELLGGPSVFLFPPKPKDTLMISRTPEVTCVVVDVSHEEPEVKFNWYVDGVEVHNAKTKPCEEQYGSTYRCVSVLTVLHQDWLNGKEYKCKVSNKALPAPIEKTISKAKGQPREPQVYTLPPSREEMTKNQVSLTCLVKGFYPSDIAVEWESNGQPENNYKTTPPVLDSDGSFFLYSKLTVDKSRWQQGNVFSCSVMHEALHNHYTQKSLSLSPGK	814	1	1	432	1.1	1
